{"source": "the supplement of paper PMC8728848", "binders": {"B1": {"name": "Clec49 (Caenorhabditis elegans) (protein)", "chain": "MTRLTLLLFGLLGAATAQTCNTGGIYNEQFNRCYQYFTAPAQFSFAEQQCNLLGGHLASVQNGQENALLQSNAANSFKRSNYSDYWIGATDLETSGTWKWTDPSVTFDYSNWQLGEPQSGSDCAIQDKGDGTWSAIGCTSYRPYVCVTPVIMTATCPPITTPIPTTCPTPAPCPIKQCVPSCDQGWTYFSPTDFCYRVYHGEKFNDAEASCVLLGGHLASIHSLTENTFVNNIASCGIKEGKYEHLAWIGMRKVGQDWVWTDGTPSDYFNWAPKQPDNPKKELCVQTAPDLSHDKWYENWNNLECNEVMRAYICKKASIHN"}}, "assay_in_all_cases": "glycan array binding signal (z-score within array); higher = stronger binding", "conditions_in_all_cases": "glycan notation: IUPAC condensed, linker removed", "key": {"[1]": {"target": "Gal(b1-4)GlcNAc(b1-2)Man(a1-6)[Man(a1-3)]Man(b1-4)GlcNAc(b1-4)GlcNAc", "in_short": "(§1)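 Glycan array data came from 3228 arrays in the Consortium for Functional Glycomics database, and only arrays with an available protein sequence were kept. Glycan names were put into IUPAC-condensed notation, and columns mapping to the same glycan were averaged. The binding signal is a within-array Z-score, averaged across arrays of one protein sequence run at different concentrations or buffers and across linkers. A negative Z-score can be read as non-binding.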"}, "[2]": {"target": "Gal(b1-4)GlcNAc(b1-2)[Gal(b1-4)GlcNAc(b1-4)]Man(a1-3)[Gal(b1-4)GlcNAc(b1-2)Man(a1-6)]Man(b1-4)GlcNAc(b1-4)GlcNAc", "in_short": "as §1"}, "[3]": {"target": "Gal(b1-4)GlcNAc(b1-2)[Gal(b1-4)GlcNAc(b1-4)]Man(a1-3)[Gal(b1-4)GlcNAc(b1-2)[Gal(b1-4)GlcNAc(b1-6)]Man(a1-6)]Man(b1-4)GlcNAc(b1-4)GlcNAc", "in_short": "as §1"}, "[4]": {"target": "Gal(b1-4)GlcNAc(b1-2)[Gal(b1-4)GlcNAc(b1-4)]Man(a1-3)[GlcNAc(b1-4)][Gal(b1-4)GlcNAc(b1-2)Man(a1-6)]Man(b1-4)GlcNAc(b1-4)GlcNAc", "in_short": "as §1"}, "[5]": {"target": "Gal(b1-4)GlcNAc(b1-2)[Gal(b1-4)GlcNAc(b1-4)]Man(a1-3)[GlcNAc(b1-4)][Gal(b1-4)GlcNAc(b1-2)[Gal(b1-4)GlcNAc(b1-6)]Man(a1-6)]Man(b1-4)GlcNAc(b1-4)GlcNAc", "in_short": "as §1"}, "[6]": {"target": "Gal(b1-4)GlcNAc(b1-2)[Gal(b1-4)GlcNAc(b1-6)]Man(a1-6)[Gal(b1-4)GlcNAc(b1-2)Man(a1-3)]Man(b1-4)GlcNAc(b1-4)GlcNAc", "in_short": "as §1"}, "[7]": {"target": "Gal(b1-4)GlcNAc(b1-2)[Gal(b1-4)GlcNAc(b1-6)]Man(a1-6)[Gal(b1-4)GlcNAc(b1-2)Man(a1-3)]Man(b1-4)GlcNAc(b1-4)[Fuc(a1-6)]GlcNAc", "in_short": "as §1"}, "[8]": {"target": "Gal(b1-4)GlcNAc(b1-2)[Gal(b1-4)GlcNAc(b1-6)]Man(a1-6)[GlcNAc(b1-4)][Gal(b1-4)GlcNAc(b1-2)Man(a1-3)]Man(b1-4)GlcNAc(b1-4)GlcNAc", "in_short": "as §1"}, "[9]": {"target": "Gal(b1-4)GlcNAc(b1-2)[Gal(b1-4)GlcNAc(b1-6)]Man(a1-6)[GlcNAc(b1-4)][Gal(b1-4)GlcNAc(b1-2)[Gal(b1-4)GlcNAc(b1-4)]Man(a1-3)]Man(b1-4)GlcNAc(b1-4)[Fuc(a1-6)]GlcNAc", "in_short": "as §1"}, "[10]": {"target": "Gal(b1-4)GlcNAc(b1-3)Gal(b1-3)GalNAc", "in_short": "as §1"}, "[11]": {"target": "Gal(b1-4)GlcNAc(b1-3)Gal(b1-3)GlcNAc", "in_short": "as §1"}, "[12]": {"target": "Gal(b1-4)GlcNAc(b1-3)Gal(b1-4)Glc", "in_short": "as §1"}, "[13]": {"target": "Gal(b1-4)GlcNAc(b1-3)Gal(b1-4)GlcNAc", "in_short": "as §1"}, "[14]": {"target": "Gal(b1-4)GlcNAc(b1-3)Gal(b1-4)GlcNAc(b1-2)Man(a1-3)[Gal(b1-4)GlcNAc(b1-3)Gal(b1-4)GlcNAc(b1-2)Man(a1-6)]Man(b1-4)GlcNAc(b1-4)GlcNAc", "in_short": "as §1"}, "[15]": {"target": "Gal(b1-4)GlcNAc(b1-3)Gal(b1-4)GlcNAc(b1-2)Man(a1-3)[Gal(b1-4)GlcNAc(b1-3)Gal(b1-4)GlcNAc(b1-2)Man(a1-6)]Man(b1-4)GlcNAc(b1-4)[Fuc(a1-6)]GlcNAc", "in_short": "as §1"}, "[16]": {"target": "Gal(b1-4)GlcNAc(b1-3)Gal(b1-4)GlcNAc(b1-2)[Gal(b1-4)GlcNAc(b1-3)Gal(b1-4)GlcNAc(b1-6)]Man(a1-6)[Gal(b1-4)GlcNAc(b1-3)Gal(b1-4)GlcNAc(b1-2)Man(a1-3)]Man(b1-4)GlcNAc(b1-4)GlcNAc", "in_short": "as §1"}, "[17]": {"target": "Gal(b1-4)GlcNAc(b1-3)Gal(b1-4)GlcNAc(b1-2)[Gal(b1-4)GlcNAc(b1-3)Gal(b1-4)GlcNAc(b1-6)]Man(a1-6)[Gal(b1-4)GlcNAc(b1-3)Gal(b1-4)GlcNAc(b1-2)Man(a1-3)]Man(b1-4)GlcNAc(b1-4)[Fuc(a1-6)]GlcNAc", "in_short": "as §1"}, "[18]": {"target": "Gal(b1-4)GlcNAc(b1-3)Gal(b1-4)GlcNAc(b1-3)Gal(b1-4)GlcNAc", "in_short": "as §1"}}, "note": "The other results are listed elsewhere or left out.", "data": [{"binder": "B1", "values": [{"measurement": "glycan array binding signal (z-score)", "setting": "[1]", "result": -0.099}, {"measurement": "glycan array binding signal (z-score)", "setting": "[2]", "result": -0.275}, {"measurement": "glycan array binding signal (z-score)", "setting": "[3]", "result": -0.874}, {"measurement": "glycan array binding signal (z-score)", "setting": "[4]", "result": -0.004}, {"measurement": "glycan array binding signal (z-score)", "setting": "[5]", "result": -0.205}, {"measurement": "glycan array binding signal (z-score)", "setting": "[6]", "result": -0.312}, {"measurement": "glycan array binding signal (z-score)", "setting": "[7]", "result": 0.551}, {"measurement": "glycan array binding signal (z-score)", "setting": "[8]", "result": 0.081}, {"measurement": "glycan array binding signal (z-score)", "setting": "[9]", "result": -0.016}, {"measurement": "glycan array binding signal (z-score)", "setting": "[10]", "result": 0.024}, {"measurement": "glycan array binding signal (z-score)", "setting": "[11]", "result": -0.158}, {"measurement": "glycan array binding signal (z-score)", "setting": "[12]", "result": 0.145}, {"measurement": "glycan array binding signal (z-score)", "setting": "[13]", "result": -0.1}, {"measurement": "glycan array binding signal (z-score)", "setting": "[14]", "result": 2.54}, {"measurement": "glycan array binding signal (z-score)", "setting": "[15]", "result": 0.726}, {"measurement": "glycan array binding signal (z-score)", "setting": "[16]", "result": 0.013}, {"measurement": "glycan array binding signal (z-score)", "setting": "[17]", "result": -0.364}, {"measurement": "glycan array binding signal (z-score)", "setting": "[18]", "result": 0.409}]}]}
